Source: patent US20040102423A1, “Spironolactone and angiotensin II antagonist combination therapy for treatment of congestive heart failure” (G.D. Searle & Co., priority 1995, published 2004)
Values joined by “and” are separate entries in the source; they are usually repeats but may differ in a detail not shown here. Identical values can stand only once. For part of these data: The name of at least one read-out is uncertain. For part of these data: For at least one compound, name, drawing or mass did not settle the structure.

What was measured:
[1] = test system: pressor response to AII; experiment: Assay C: In vivo intragastric pressor assay response for AII antagonists; design: species or system Sprague-Dawley rats; settings: dose not given
[2] = biological target: angiotensin II AT1 receptor; experiment: Assay A: Angiotensin II binding activity, rat uterine membrane preparation, 125I-AII displacement
Procedure: Assay A: Antiotensin II Binding Activity
Compounds of the invention were tested for ability to bind to the smooth muscle angiotensin II receptor using a rat uterine membrane preparation. […] Rat uterine membranes were prepared from fresh tissue. All procedures were carried out at 4° C. Uteri were stripped of fat and homogenized in phosphate-buffered saline at pH 7.4 containing 5 mM EDTA. The homogenate was centrifuged at 1500×g for 20 min., and the supernatant was recentrifuged at 100,000×g for 60 min. The pellet was resuspended in buffer consisting of 2 mM EDTA and 50 mM Tris-HCl (pH 7.5) to a final protein concentration of 4 mg/ml. […] The reaction was initiated by the addition of membrane protein and the mixture was incubated at 25° C. for 60 min. The incubation was terminated with ice-cold 50 mM Tris-HCl (pH 7.5) and the mixture was filtered to separate membrane-bound labelled peptide from the free ligand. The incubation tube and filter were washed with ice-cold buffer. Filters were assayed for radioactivity in a Micromedic gamma counter. Nonspecific binding was defined as binding in the presence of 10 μM of unlabelled AII. Specific binding was calculated as total binding minus nonspecific binding. […] Binding data were analyzed by a nonlinear least-squares curve fitting program.

[3] = test system: rabbit aortic rings; experiment: Assay B: In vitro vascular smooth muscle response for AII (antagonist activity, pA2); format: cell-based; settings: two values in a cell = two determinations
Procedure: Assay B: In Vitro Vascular Smooth Muscle-Response for AII
The compounds of the invention were tested for antagonist activity in rabbit aortic rings. Male New Zealand white rabbits (2-2.5 kg) were sacrificed using an overdose of pentobarbital and exsanguinated via the carotid arteries. The thoracic aorta was removed, cleaned of adherent fat and connective tissue and then cut into 3-mm ring segments. The endothelium was removed from the rings by gently sliding a rolled-up piece of filter paper into the vessel lumen. The rings were then mounted in a water-jacketed tissue bath, maintained at 37° C., between moveable and fixed ends of a stainless steel wire with the moveable end attached to an FT03 Grass transducer coupled to a Model 7D Grass Polygraph for recording isometric force responses. The bath was filled with 20 ml of oxygenated (95% oxygen/5% carbon dioxide) Krebs solution of the following composition (mM): 130 NaCl, 15 NaHCO3, […], 1.2 NaH2PO4, 1.2 MgSO4, 2.5 CaCl2, and 11.4 glucose. The preparations were equilibrated for one hour before approximately one gram of passive tension was placed on the rings. Angiotensin II concentration-response curves were then recorded (3×10^−10 to 1×10^−5 M). Each concentration of AII was allowed to elicit its maximal contraction, and then AII was washed out repeatedly for 30 minutes before rechallenging with a higher concentration of AII. Aorta rings were exposed to the test antagonist at 10^−5 M for 5 minutes before challenging with AII. Adjacent segments of the same aorta ring were used for all concentration-response curves in the presence or absence of the test antagonist. The effectiveness of the test compound was expressed in terms of pA2 values and were calculated according to H. O. Schild [Br. J. Pharmacol. Chemother., 2, 189-206 (1947)]. The pA2 value is […] which increases the EC50 value for AII by a factor of two. Each test antagonist was evaluated in aorta rings from two rabbits.

CCCCc1cn(CCc2ccccc2)c(=O)n1Cc1ccc(-c2ccccc2-c2nnn[nH]2)cc1 [Compound 144]
Assay C Duration ([1]; intraduodenally): 125 min | Assay C Inhibition ([1]; intraduodenally): 50%

CCCCc1nc(Cc2ccc(-c3ccccc3-c3nnn[nH]3)cc2)nn1CCCC [Compound 140]
Assay C Duration ([1]; intraduodenally): 160 min | Assay C Inhibition ([1]; intraduodenally): 100%

CCCCc1nn(CC(=O)C23CC4CC(CC(C4)C2)C3)c(=O)n1Cc1ccc(-c2ccccc2-c2nn[nH]n2)cc1 [Compound 91]
Assay C Duration ([1]; intragastrically): >180 min | Assay C Inhibition ([1]; intragastrically): 40%

CCCCc1nc(C(F)(F)C(F)(F)C(F)(F)F)nn1Cc1ccc(-c2ccccc2-c2nnn[nH]2)cc1 [Compound 81]
Assay C Duration ([1]; intragastrically): 180 min | Assay C Inhibition ([1]; intragastrically): 40% | IC50 [2]: 18 nM

CCCCc1nc2c(CCC)nnc(O)c2n1Cc1ccc(-c2ccccc2-c2nnn[nH]2)cc1 [Compound 124]
IC50 [2]: 40 nM | Assay B pA2 [3]: 9.12

CCCCc1cn(CCCC)c(=O)n1Cc1ccc(-c2ccccc2-c2nnn[nH]2)cc1 [Compound 143]
Assay C Duration ([1]; intraduodenally): 75 min | Assay C Inhibition ([1]; intraduodenally): 85%

CCCCc1nc(CCCN)nn1Cc1ccc(-c2ccccc2-c2nnn[nH]2)cc1 [Compound 83]
Assay C Duration ([1]; intragastrically): >180 min | Assay C Inhibition ([1]; intragastrically): 15%

CCCCc1nc(CCCN)n(Cc2ccc(-c3ccccc3-c3nnn[nH]3)cc2)n1 [Compound 82]
Assay C Duration ([1]; intragastrically): 180 min | Assay C Inhibition ([1]; intragastrically): 20%

CCCCc1nc2c(O)nnc(CCC)c2n1Cc1ccc(-c2ccccc2-c2nnn[nH]2)cc1 [Compound 125]
IC50 [2]: 40 nM

CCCCc1nc(CC23CC4CC(CC(C4)C2)C3)nn1Cc1ccc(-c2ccccc2-c2nnn[nH]2)cc1 [Compound 73]
Assay B pA2 [3]: 7.46

CCCCc1nc2cnncc2n1Cc1ccc(-c2ccccc2-c2nnn[nH]2)cc1 [Compound 128]
IC50 [2]: 16 nM | Assay B pA2 [3]: 8.40

CCCCc1nc(CC23CC4CC(CC(C4)C2)C3)n(Cc2ccc(-c3ccccc3-c3nnn[nH]3)cc2)n1 [Compound 72]
Assay B pA2 [3]: 6.10

CCCCc1cn(C2CCCCC2(C)C)c(=O)n1Cc1ccc(-c2ccccc2-c2nnn[nH]2)nc1 (stereo not drawn) [Compound 248]
Assay B pA2 [3]: 7.50

COC(=O)CC[C@]1(O)CC[C@H]2[C@@H]3[C@H](C(=O)OC)CC4=CC(=O)CC[C@]4(C)C34O[C@@H]4C[C@@]21C (stereo partly drawn) [Compound 2]
Assay B pA2 [3]: 7.59

CCCCc1nc(CCC2CCCCC2)n(Cc2ccc(-c3ccccc3-c3nnn[nH]3)cc2)n1 [Compound 53]
Assay B pA2 [3]: 7.83

CCCCc1nc(CC2CCCCC2)n(Cc2ccc(-c3ccccc3-c3nnn[nH]3)cc2)n1 [Compound 84]
Assay C Duration ([1]; intragastrically): 30 min | Assay C Inhibition ([1]; intragastrically): 20%

CCCCc1cn(CCCC)c(=O)n1Cc1ccc(-c2ncccc2-c2nnn[nH]2)cc1 [Compound 235]
Assay B pA2 [3]: 7.07

CCCCc1nc(CCCNC(=O)OC(C)(C)C)nn1Cc1ccc(-c2ccccc2-c2nnn[nH]2)cc1 [Compound 79]
Assay C Duration ([1]; intraduodenally): >200 min and >180 min | Assay C Inhibition ([1]; intraduodenally): 100% and 50%

CCCCc1nc(-c2ccccc2C(C)C)nn1Cc1ccc(-c2ccccc2-c2nnn[nH]2)nc1 [Compound 274]
Assay B pA2 [3]: 8.85

CCCCc1cn(-c2ccccc2CC)c(=O)n1Cc1ccc(-c2ccccc2-c2nnn[nH]2)nc1 [Compound 239]
Assay B pA2 [3]: 8.01

CCCCc1nc(CCCNC(=O)OC(C)(C)C)n(Cc2ccc(-c3ccccc3-c3nnn[nH]3)cc2)n1 [Compound 78]
Assay C Duration ([1]; intraduodenally): 60 to 100 min | Assay C Inhibition ([1]; intraduodenally): 93%

CCCCCCCCc1nc(CCCC)nn1Cc1ccc(-c2ccccc2-c2nnn[nH]2)cc1 [Compound 39]
Assay B pA2 [3]: 7.84

CCCCc1nc(CC(OCC)OCC)nn1Cc1ccc(-c2ccccc2-c2nnn[nH]2)cc1 [Compound 49]
Assay B pA2 [3]: 7.07

CCCn1cc(CC(C)C)n(Cc2ccc(-c3ccccc3-c3nnn[nH]3)nc2)c1=O [Compound 198]
Assay B pA2 [3]: 8.64

CCCCn1nc(C(F)CCC)nc1Cc1ccc(-c2ccccc2-c2nnn[nH]2)nc1 (stereo not drawn) [Compound 172]
Assay B pA2 [3]: 7.04

C[C@]12C=CC(=O)C=C1[C@@H]1CC1[C@H]1[C@@H]3CC[C@@]4(CCC(=O)O4)[C@@]3(C)CC3O[C@]312 (stereo partly drawn) [Compound 6]
Assay B pA2 [3]: 6.82

CCCCc1nc(C2CCCCC2)n(Cc2ccc(-c3ccccc3-c3nnn[nH]3)cc2)n1 [Compound 76]
Assay B pA2 [3]: 5.78

CCCCc1nc(Cl)nn1Cc1ccc(-c2ccccc2C(=O)O)cc1 [Compound 17]
Assay B pA2 [3]: 8.40

CCCCc1nc(C(=O)O)nn1Cc1ccc(-c2ccccc2-c2nnn[nH]2)cc1 [Compound 63]
Assay B pA2 [3]: 7.67

CCCCc1nc(CCc2ccccc2)nn1Cc1ccc(-c2ccccc2-c2nnn[nH]2)cc1 [Compound 37]
Assay B pA2 [3]: 6.85

CCCCc1nc(C(=O)CCC)nn1Cc1ccc(-c2ccccc2-c2nnn[nH]2)cc1 [Compound 42]
Assay B pA2 [3]: 6.56 and 6.26

CCCCc1nc(CC)nn1Cc1ccc(-c2ccccc2-c2nnn[nH]2)cc1 [Compound 50]
Assay B pA2 [3]: 7.89
